Drawing on the supplement of paper PMC4604168 (melanoma cell lines), this text covers cell count for 12 molecules.

Some of the results follow. Many values rest on one well or one pass, so single values are uncertain.

Some test systems named below: WM115; WM1716; WM1745; WM3526; WM3619; WM451Lu.
Common to all, as to test: cell count relative to DMSO control; melanoma cells; higher = more viable cells
Details in all cases: library dose: low library concentration; 72 h
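Further: cell number obtained by counting DAPI-stained nuclei in high-throughput microscope images with image analysis software, screen run in 1,536-well plates.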

Consider `Cn1c(=O)n(-c2ccc(C(C)(C)C#N)cc2)c2c3cc(-c4cnc5ccccc5c4)ccc3ncc21` + Nc1ncn([C@H]2C[C@H](O)[C@@H](CO)O2)c(=O)n1 [decitabine] (first compound 0.004 µM, partner dose 0.1 µM), for which the cell count was 84.4% with WM115; 76.3% in the assay with WM1716; 88.9% in the assay on WM1745; 82.2% with WM3526; 71.7% with WM3619; 96.9% with WM451Lu.
`Cn1c(=O)n(-c2ccc(C(C)(C)C#N)cc2)c2c3cc(-c4cnc5ccccc5c4)ccc3ncc21` + CC(C)(C)c1cnc(CSc2cnc(NC(=O)C3CCNCC3)s2)o1 [SNS-032] (first compound 0.004 µM, partner dose 0.01 µM): the cell count in the assay with WM115 amounted to 84%; with WM1716, 95.7%; in the assay on WM1745, 99.4%; in the assay with WM3526, 85.8%; in the assay on WM3619, 97.7%; in the assay with WM451Lu it was 108%.
Turning to `CC(C)C[C@H](NC(=O)[C@H](Cc1ccccc1)NC(=O)c1cnccn1)B(O)O` [Bortezomib] + Nc1nc(F)nc2c1ncn2[C@@H]1O[C@H](CO)[C@@H](O)[C@@H]1O [fludarabine] (first compound 0.001 µM, partner dose 0.2 µM), the cell count with WM115 is 98%; in the assay with WM1716, 35.8%; in the assay with WM1745, 90.2%; with WM3526, 39%; with WM3619, 22.8%; in the assay with WM451Lu, 44.4%.
`Cc1cc(Nc2cc(N3CCN(C)CC3)nc(/C=C/c3ccccc3)n2)n[nH]1` + CS(=O)(=O)CCNCc1ccc(-c2ccc3ncnc(Nc4ccc(OCc5cccc(F)c5)c(Cl)c4)c3c2)o1 [lapatinib] (first compound 0.04 µM, partner dose 0.8 µM): the cell count in the assay on WM115 was 91.1%; in the assay with WM1716 it was 99.7%; with WM1745, 89.2%; in the assay on WM3526 it was 78%; with WM3619 it was 92.2%; with WM451Lu, 93.3%.
With `CC(C)C[C@H](NC(=O)[C@H](Cc1ccccc1)NC(=O)c1cnccn1)B(O)O` [Bortezomib] + COc1ccc(COc2ccc(Cc3cnc(N)nc3N)cc2OC)cc1 [GW2580] (first compound 0.001 µM, partner dose 1 µM), the cell count in the assay with WM115 came out at 105%; in the assay on WM1716, 40.8%; in the assay on WM1745, 70.8%; with WM3526, 99.7%; with WM3619 it was 43.5%; in the assay on WM451Lu it was 80.7%.
In the case of `Cn1c(=O)n(-c2ccc(C(C)(C)C#N)cc2)c2c3cc(-c4cnc5ccccc5c4)ccc3ncc21` + NC(=O)Nc1cc(-c2cccc(F)c2)sc1C(=O)N[C@H]1CCCNC1 [AZD7762] (first compound 0.004 µM, partner dose 0.02 µM), the cell count came out at 68.8% in the assay on WM115; 79.1% with WM1716; 86% in the assay with WM1745; 59% in the assay with WM3526; 41.3% in the assay with WM3619; 75.9% with WM451Lu.
As for `CC(C)C[C@H](NC(=O)[C@H](Cc1ccccc1)NC(=O)c1cnccn1)B(O)O` [Bortezomib] + Cc1cc(N2CCOCC2)cc2[nH]c(-c3c(NC[C@@H](O)c4cccc(Cl)c4)cc[nH]c3=O)nc12 [BMS536924] (first compound 0.001 µM, partner dose 0.2 µM), the cell count in the assay with WM115 stood at 110%; with WM1716 it was 44.3%; in the assay on WM1745, 47.3%; with WM3526, 88.6%; in the assay on WM3619 it was 14.6%; in the assay with WM451Lu, 76.5%.
Turning to `Cc1cn(-c2cc(NC(=O)c3ccc(C)c(Nc4nccc(-c5cccnc5)n4)c3)cc(C(F)(F)F)c2)cn1` [nilotinib] + Nc1ncn([C@H]2C[C@H](O)[C@@H](CO)O2)c(=O)n1 [decitabine] (first compound 0.2 µM, partner dose 0.1 µM), the cell count in the assay with WM115 is 93.8%; in the assay on WM1716, 90.4%; with WM1745, 93.3%; with WM3526 it was 114%; in the assay with WM3619 it was 92.7%; in the assay with WM451Lu it was 95.4%.
Consider `Cc1cn(-c2cc(NC(=O)c3ccc(C)c(Nc4nccc(-c5cccnc5)n4)c3)cc(C(F)(F)F)c2)cn1` [nilotinib] + CN1CCN(c2ccc3nc(-c4c(N)c5c(F)cccc5[nH]c4=O)[nH]c3c2)CC1 [Dovitinib] (first compound 0.2 µM, partner dose 0.1 µM), for which the cell count in the assay with WM115 worked out at 111%; in the assay on WM1716 it was 104%; with WM1745, 96.6%; in the assay on WM3526 it was 103%; in the assay on WM3619, 110%; in the assay on WM451Lu it was 118%.
With `CC(C)C[C@H](NC(=O)[C@H](Cc1ccccc1)NC(=O)c1cnccn1)B(O)O` [Bortezomib] + COC(=O)c1sccc1S(=O)(=O)Nc1ccc(Nc2ccccc2)cc1OC [GSK0660] (first compound 0.001 µM, partner dose 1 µM), the cell count is 94.6% in the assay with WM115; 28.9% with WM1716; 54.3% in the assay on WM1745; 66.3% in the assay with WM3526; 6.34% in the assay with WM3619; 97.2% in the assay with WM451Lu.
For the molecule `CC(C)C[C@H](NC(=O)[C@H](Cc1ccccc1)NC(=O)c1cnccn1)B(O)O` [Bortezomib] + CNC(=O)c1cc(Oc2ccc(NC(=O)Nc3ccc(Cl)c(C(F)(F)F)c3)cc2)ccn1 [sorafenib] (first compound 0.001 µM, partner dose 0.4 µM), the cell count with WM115 worked out at 95.4%; with WM1716, 20.9%; with WM1745 it was 44.8%; in the assay on WM3526, 78.3%; in the assay with WM3619 it was 17.9%; in the assay on WM451Lu, 82%.
Regarding `CC(C)C[C@H](NC(=O)[C@H](Cc1ccccc1)NC(=O)c1cnccn1)B(O)O` [Bortezomib] + COc1cc(Nc2ncc(F)c(Nc3ccc4c(n3)NC(=O)C(C)(C)O4)n2)cc(OC)c1OC [Tamatinib] (first compound 0.001 µM, partner dose 0.4 µM), the cell count in the assay with WM115 was 90.8%; in the assay on WM1716, 40.3%; in the assay on WM1745, 32.7%; with WM3526, 93.5%; in the assay on WM3619, 9.79%; with WM451Lu it was 90.7%.
